{"source": "the supplement of paper PMC10600219", "note": "Structures can show the parent of a compound that is named as a salt. Whole data set: some 2,800 compounds, median “cell viability relative to vehicle” near 1.1, cut for the lowest 2% near 0.19. The list shows a part of the results.", "data": [{"tested_on": "NCI-H2228 parental", "assay": "cell viability relative to vehicle (fraction of vehicle); NCI-H2228 is an ALK-positive lung cancer line and DTP means drug-tolerant persister; higher = less growth inhibition", "details": "100 nM; treatment time 6 days", "method_in_brief": "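Values give cell viability as a fraction of vehicle-treated cells. Parental and drug-tolerant persister NCI-H2228 cells (persisters made with 1000 nM of a targeted drug for 13 days) were exposed in 384-well plates to the 3114-agent TargetMol anti-cancer compound library at 100 nM, with DMSO as vehicle. ATP was then read after 6 days by the CellTiter-Glo 3D Cell Viability Assay.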", "values": [{"smiles": "CNCC(O)c1ccc(OC(=O)C(C)(C)C)c(OC(=O)C(C)(C)C)c1", "note": "(centres undefined) [Dipivefrin hydrochloride]", "cell viability": 1.05}, {"smiles": "O=C(NCCO)c1cccc(-c2cc(Nc3ccc(OC(F)(F)F)cc3)ncn2)c1", "cell viability": 1.02}, {"smiles": "COCC[n+]1c2c(n(Cc3cnccn3)c1C)C(=O)c1ccccc1C2=O", "cell viability": 0.0796}, {"smiles": "CO[C@]1(CC[C@@H](C)CO[C@@H]2O[C@H](CO)[C@@H](O)[C@H](O)[C@H]2O)O[C@H]2C[C@H]3[C@@H]4CC=C5C[C@@H](O[C@@H]6O[C@H](CO)[C@@H](O[C@@H]7O[C@@H](C)[C@H](O)[C@@H](O)[C@H]7O)[C@H](O)[C@H]6O[C@@H]6O[C@@H](C)[C@H](O)[C@@H](O)[C@H]6O)CC[C@]5(C)[C@H]4CC[C@]3(C)[C@H]2[C@@H]1C", "note": "[Methyl protodioscin]", "cell viability": 1.14}, {"smiles": "CCc1cn([C@H]2C[C@H](O)[C@@H](CO)O2)c(=O)[nH]c1=O", "note": "[Edoxudine]", "cell viability": 1.04}, {"smiles": "CN1C(=O)C(C)(C)Oc2c(-c3cn(C)c(=O)c4[nH]ccc34)cc(S(C)(=O)=O)cc21", "cell viability": 0.935}, {"smiles": "COC(=O)C1=CC[C@@]23CC[C@@H]([C@@](C)(/C=C/C=C(\\C)C(=O)O)OC2=O)[C@@]3(OC(C)=O)CC1", "note": "[Pseudolaric Acid B]", "cell viability": 1.03}, {"smiles": "CCCCNNC(=O)c1ccc(-c2cccc(F)c2F)cc1", "cell viability": 1.03}, {"smiles": "Cc1c(N(C)CS(=O)(=O)O)c(=O)n(-c2ccccc2)n1C", "note": "[Analgin]", "cell viability": 0.98}, {"smiles": "C[C@@H]1CCN(C(=O)CC#N)C[C@@H]1N(C)c1ncnc2[nH]ccc12", "note": "[Tofacitinib]", "cell viability": 1}, {"smiles": "O=c1[nH]c(=O)n(C2CCCO2)cc1F", "note": "(centres undefined) [Tegafur]", "cell viability": 0.988}, {"smiles": "Cc1cc2c(F)c(Oc3ncnn4cc(OC[C@@H](C)OC(=O)[C@H](C)N)c(C)c34)ccc2[nH]1", "note": "[Brivanib Alaninate]", "cell viability": 0.914}, {"smiles": "CCOC(=O)Nc1cc(-c2ccc(C)c(NS(C)(=O)=O)c2)nn2c(C)nnc12", "note": "[Bromosporine]", "cell viability": 1}, {"smiles": "COc1cc2c3cc1Oc1c(OC)c(OC)cc4c1[C@@H](Cc1ccc(O)c(c1)Oc1ccc(cc1)C[C@@H]3N(C)CC2)N(C)CC4", "note": "[Berbamine]", "cell viability": 1.03}, {"smiles": "CN1CCN(c2c(F)cc3c(=O)c(C(=O)O)cn(CCF)c3c2F)CC1", "note": "[Fleroxacin]", "cell viability": 1.15}, {"smiles": "C[C@H](CCC(=O)O)[C@H]1CC[C@H]2[C@@H]3[C@H](O)C[C@@H]4C[C@H](O)CC[C@]4(C)[C@H]3CC[C@]12C", "note": "[Chenodeoxycholic acid]", "cell viability": 1.26}, {"smiles": "NC(=O)c1ccccc1Nc1ccnc(Nc2cccc(O)c2)n1", "cell viability": 1.01}, {"smiles": "NNc1nncc2ccccc12", "note": "[Hydralazine hydrochloride]", "cell viability": 1}, {"smiles": "CC(=O)OCC(CCn1cnc2cnc(N)nc21)COC(C)=O", "note": "[Famciclovir]", "cell viability": 1.07}, {"smiles": "NCC(O)CC(=O)O", "note": "(centres undefined) [4-Amino-3-hydroxybutyric Acid]", "cell viability": 1.17}, {"smiles": "O=c1cc(-c2ccc(O[C@@H]3O[C@H](CO)[C@@H](O)[C@H](O)[C@H]3O)cc2)oc2cc(O)c([C@@H]3O[C@H](CO)[C@@H](O)[C@H](O)[C@H]3O[C@@H]3OC[C@H](O)[C@H](O)[C@H]3O)c(O)c12", "note": "[Vaccarin]", "cell viability": 1.09}, {"smiles": "C=CC(=O)Nc1cccc(Oc2nc(Nc3ccc(N4CCN(C)CC4)cc3OC)ncc2Cl)c1", "cell viability": 1.19}, {"smiles": "O=C(/C=C/c1ccc(O)c(O)c1)OCCc1ccccc1", "note": "[Caffeic Acid Phenethyl Ester]", "cell viability": 1.03}, {"smiles": "CC[C@H](C)C(=O)O[C@H]1CCC=C2C=C[C@H](C)[C@H](CC[C@@H]3C[C@@H](O)CC(=O)O3)[C@H]21", "note": "[Mevastatin]", "cell viability": 1.19}, {"smiles": "C=C1C[C@@]23CC[C@H]4[C@@](C)(CCC[C@@]4(C)C(=O)O)[C@@H]2CC[C@]1(O[C@@H]1O[C@@H](CO)[C@@H](O)[C@H](O)[C@@H]1O[C@@H]1O[C@@H](CO)[C@@H](O)[C@H](O)[C@@H]1O)C3", "note": "[steviolbioside]", "cell viability": 0.981}, {"smiles": "O=c1oc2ccccc2c(O)c1Cc1c(O)c2ccccc2oc1=O", "note": "[Dicumarol]", "cell viability": 1.05}, {"smiles": "CS(=O)(=O)N1CCc2c(-c3cnc(N)nc3)nc(N3CCOCC3)nc21", "cell viability": 0.926}, {"smiles": "CN(C)C[C@@H]1CCn2cc(c3ccccc32)C2=C(C(=O)NC2=O)c2cn(c3ccccc23)CCO1", "note": "[Ruboxistaurin hydrochloride]", "cell viability": 1}, {"smiles": "Cc1nc(=O)c2cc(CN(C)c3ccc(C(=O)N[C@@H](CCC(=O)O)C(=O)O)s3)ccc2[nH]1", "note": "[Raltitrexed]", "cell viability": 0.151}, {"smiles": "O=C1c2ccccc2C(=O)c2c1ccc(O)c2O", "note": "[Alizarin]", "cell viability": 1.22}, {"smiles": "CCCOc1ccn2c(C(C)=O)cc(-c3ccccc3S(C)(=O)=O)c2c1", "cell viability": 0.991}, {"smiles": "Cc1cnc(NC(=O)C2=C(O)c3ccccc3S(=O)(=O)N2C)s1", "note": "[Meloxicam]", "cell viability": 1.06}, {"smiles": "O=C(O)CCCc1ccccc1", "note": "[Sodium Phenylbutyrate]", "cell viability": 1.36}, {"smiles": "CC1(C)O[C@@H]2C[C@H]3[C@@H]4CCC5=CC(=O)C=C[C@]5(C)[C@@]4(F)[C@@H](O)C[C@]3(C)[C@]2(C(=O)CO)O1", "note": "[Triamcinolone acetonide]", "cell viability": 1.02}, {"smiles": "COc1cc(O)cc(O)c1C(=O)/C=C/c1ccccc1", "note": "[Cardamonin]", "cell viability": 1.06}, {"smiles": "C[C@@H]1C[C@H]2[C@@H]3CCC4=CC(=O)C=C[C@]4(C)[C@@]3(F)[C@@H](O)C[C@]2(C)[C@@]1(O)C(=O)CO", "note": "[Dexamethasone]", "cell viability": 0.864}, {"smiles": "CC1(C)OCCn2c1nc1c(N3CCOCC3)nc(-c3cnc(N)nc3)nc12", "cell viability": 0.739}, {"smiles": "CC(C)Oc1ccc(C(=O)N[C@H](CNC(=O)CN(C)C)Cc2ccc(-c3cn4cccc([C@H](C)O)c4n3)cc2)cc1Cl", "cell viability": 0.15}, {"smiles": "O=C(O)COC(=O)Cc1ccccc1Nc1c(Cl)cccc1Cl", "note": "[Aceclofenac]", "cell viability": 1.28}, {"smiles": "Cc1nnc(NS(=O)(=O)c2ccc(N)cc2)s1", "note": "[Sulfamethizole]", "cell viability": 1.14}, {"smiles": "CN(C)c1ccc(/C=C2/C(=O)Nc3ccccc32)cc1", "cell viability": 1.05}, {"smiles": "COc1cc(NS(C)(=O)=O)ccc1Nc1c2ccccc2nc2ccccc12", "note": "[Amsacrine]", "cell viability": 0.209}, {"smiles": "NC(=O)Cc1cc[nH]n1", "note": "[1H-Pyrazole-3-acetamide]", "cell viability": 0.268}, {"smiles": "COc1ccc(/C=C/C(=O)c2c(O)cc(OC)cc2OC)cc1", "note": "[Flavokawain A]", "cell viability": 1.08}, {"smiles": "FC(F)c1nc2ccccc2n1-c1nc(N2CCOCC2)nc(N2CCOCC2)n1", "cell viability": 0.983}, {"smiles": "CN(C(=O)CNC(=O)/C=C/c1cccc(Cl)c1)C1CCS(=O)(=O)CC1", "cell viability": 0.834}, {"smiles": "CCN1CCN(c2cc3c(cc2F)c(=O)c(C(=O)O)cn3C2CC2)CC1", "note": "[Enrofloxacin]", "cell viability": 1.03}, {"smiles": "C1CCN2C[C@@H]3C[C@@H](CN4CCCC[C@@H]34)[C@H]2C1", "note": "[(-)-Sparteine sulfate pentahydrate]", "cell viability": 0.914}, {"smiles": "COc1ccccc1S(=O)(=O)Nc1ccc2c(c1)CN(C)C(=O)N2", "cell viability": 1.12}, {"smiles": "COc1ccc(CCC(=O)c2ccc(O)cc2)c(OC)c1", "note": "[Loureirin A]", "cell viability": 1.01}, {"smiles": "O=c1cc(-c2ccc(O)c(-c3c(O)cc(O)c4c(=O)cc(-c5ccc(O)cc5)oc34)c2)oc2cc(O)cc(O)c12", "note": "[Amentoflavone]", "cell viability": 1.08}, {"smiles": "Cc1ccc(Cl)c(Nc2ccccc2C(=O)O)c1Cl", "note": "[Meclofenamate Sodium]", "cell viability": 0.911}, {"smiles": "O=C(NCCO[N+](=O)[O-])c1cccnc1", "note": "[Nicorandil]", "cell viability": 1.14}, {"smiles": "CCCN(CCC)C(=O)C1=Cc2ccc(-c3ccc(C(=O)N4CCCC4)cc3)cc2N=C(N)C1", "note": "[Motolimod]", "cell viability": 1.01}, {"smiles": "CN(C)CCOc1ccc(/C(=C(/CCCl)c2ccccc2)c2ccccc2)cc1", "note": "[Toremifene citrate]", "cell viability": 1.31}, {"smiles": "CN(C)CCOc1ccc(/C(=C(/CCCl)c2ccccc2)c2ccccc2)cc1", "note": "[Toremifene]", "cell viability": 1.15}, {"smiles": "CC(C(=O)O)c1ccc(N2Cc3ccccc3C2=O)cc1", "note": "(centres undefined) [Indoprofen]", "cell viability": 0.995}, {"smiles": "CO[C@@]12[C@H](COC(N)=O)C3=C(C(=O)C(C)=C(N)C3=O)N1C[C@@H]1N[C@@H]12", "note": "[Mitomycin C]", "cell viability": 1}, {"smiles": "COc1cc(O)c(CC=C(C)C)c(O)c1C(=O)/C=C/c1ccc(O)cc1", "note": "[Xanthohumol]", "cell viability": 1.12}, {"smiles": "Cc1cc(/N=N/c2ccc(S(=O)(=O)Nc3ccccn3)cc2)c(N)cc1O", "cell viability": 1.07}, {"smiles": "Cc1ncc(NC(=O)c2ccc(CN3CCN(C)CC3)c(C(F)(F)F)c2)cc1Nc1nccc(-c2cccnc2)n1", "note": "[Flumatinib]", "cell viability": 1.07}, {"smiles": "CC1=Nc2ccc(Cl)cc2S(=O)(=O)N1", "note": "[Diazoxide]", "cell viability": 1.17}, {"smiles": "NC1(C(=O)N[C@@H](CCO)c2ccc(Cl)cc2)CCN(c2nc[nH]c3nccc2-3)CC1", "note": "[Capivasertib]", "cell viability": 1.01}, {"smiles": "Oc1ccc(OCc2ccccc2)cc1", "note": "[Monobenzone]", "cell viability": 1.15}, {"smiles": "CC(C)C1=CC2=CC[C@@H]3[C@](C)(CCC[C@@]3(C)C(=O)O)[C@H]2CC1", "note": "[Abietic Acid]", "cell viability": 1.21}, {"smiles": "CNC(=O)[C@H](Cc1c[nH]c2ccccc12)NC(=O)[C@@H](CC(=O)NO)CC(C)C", "note": "[Ilomastat]", "cell viability": 0.991}, {"smiles": "COc1cccc(/C=N/N(C(=O)C(F)(F)F)c2ccc(C)cc2C)c1", "cell viability": 1.12}, {"smiles": "C[C@]12CC[C@@H]3c4ccc(O)cc4CC[C@H]3[C@@H]1CC[C@H]2O", "note": "[17α-Estradiol]", "cell viability": 1.12}, {"smiles": "O=C(O)/C=C/c1ccc(Cn2ccnc2)cc1", "note": "[Ozagrel]", "cell viability": 1.17}, {"smiles": "O=C(O)/C=C/c1ccc(Cn2ccnc2)cc1", "note": "[Ozagrel hydrochloride]", "cell viability": 1.15}, {"smiles": "COc1cc2nccc(Oc3ccc(NC(=O)C4(C(=O)Nc5ccc(F)cc5)CC4)cc3)c2cc1OC", "note": "[Cabozantinib]", "cell viability": 1.03}, {"smiles": "COc1cc2nccc(Oc3ccc(NC(=O)C4(C(=O)Nc5ccc(F)cc5)CC4)cc3)c2cc1OC", "note": "[Cabozantinib Malate]", "cell viability": 1}, {"smiles": "O=C1CCc2ccccc2C1", "note": "[Beta-Tetralone]", "cell viability": 1.16}, {"smiles": "CNC(=O)c1cc(COc2nnc(Nc3ccc(Cl)cc3)c3ccoc23)ccn1", "note": "[Telatinib]", "cell viability": 1.05}]}]}
